Data from US20210015895A1 (PROCLARA BIOSCIENCES, published 2021).
Numbering of substitutions follows the chain as printed. Names and notes keep the numbering of the source.

B1: Polypeptide No. 71 (Fc fusion)
chain: AETVESCLAKPHTENSFTNVWKDDKTLDRYANYEGCLWNATGVVVCTGDETQCYGHWVPIGLAIPENEGGGSEGGGSEGGGSEGGGTKPPEYGDTPIPGYTYINPLDGTYPPGTEQNPANPNPSLEESQPLNTFMFQNNQFRNRQGALTVYTGTFTQGTDPVKTYYQYTPVSSKAMYDAYWNGKFRDCAFHSGFNEDPFVCEYQGQSSDLPQPPANAGGESGGGSGGGSEGGGSEGGGSEGGGSEGGGSGGGSGSGARS[human IgG1 Fc not printed]
B2: Polypeptide No. 74 (Fc fusion)
chain: B1 chain with H56K
B3: Polypeptide No. 65 (Fc fusion)
chain: B1 chain with Y54K, H56T
B4: Polypeptide No. 68 (Fc fusion)
chain: B1 chain with Y54R, H56T
B5: Polypeptide No. 75 (Fc fusion)
chain: B1 chain with Y54K, H56T, Q140R, D178N
B6: Polypeptide No. 64 (Fc fusion)
chain: B1 chain with Y54K, H56T, M135T, Q140R
B7: Polypeptide No. 91 (Fc fusion)
chain: B1 chain with H56T, M135K, Q140R, D178N
B8: Polypeptide No. 93 (Fc fusion)
chain: B1 chain with H56T, M135K, Q140R, W181R
B9: Polypeptide No. 81 (Fc fusion)
chain: B1 chain with Y54R, H56T, Q140R, W181R
B10: Polypeptide No. 92 (Fc fusion)
chain: B1 chain with H56T, M135K, Q140R, W181H
B11: Polypeptide No. 63 (Fc fusion)
chain: B1 chain with Y54K, H56T, M135K, Q140R
B12: Polypeptide No. 82 (Fc fusion)
chain: B1 chain with Y54R, H56T, Q140R, K174R
B13: Polypeptide No. 76 (Fc fusion)
chain: B1 chain with Y54K, H56T, Q140R, W181H
B14: Polypeptide No. 79 (Fc fusion)
chain: B1 chain with Y54R, H56T, Q140R, D178N
B15: Polypeptide No. 66 (Fc fusion)
chain: B1 chain with Y54R, H56T, M135K, Q140R
B16: Polypeptide No. 67 (Fc fusion)
chain: B1 chain with Y54R, H56T, M135T, Q140R
B17: Polypeptide No. 95 (Fc fusion)
chain: B1 chain with H56T, M135T, Q140R, D178N
B18: Polypeptide No. 80 (Fc fusion)
chain: B1 chain with Y54R, H56T, Q140R, W181H
B19: N1-N2-human IgG Fc fusion protein of SEQ ID NO:2 with M135G (Fc fusion)
chain: B1 chain with H56T, M135G, Q140R
B20: N1-N2-human IgG Fc fusion protein of SEQ ID NO:2 with W181K (Fc fusion)
chain: B1 chain with H56T, Q140R, W181K
B21: N1-N2-human IgG Fc fusion protein of SEQ ID NO:2 with T51N (Fc fusion)
chain: B1 chain with T51N, H56T, Q140R
B22: N1-N2-human IgG Fc fusion protein of SEQ ID NO:2 with S173P (Fc fusion)
chain: B1 chain with H56T, Q140R, S173P
B23: N1-N2-human IgG Fc fusion protein of SEQ ID NO:2 with M135R (Fc fusion)
chain: B1 chain with H56T, M135R, Q140R
B24: N1-N2-human IgG Fc fusion protein of SEQ ID NO:2 with T51Q (Fc fusion)
chain: B1 chain with T51Q, H56T, Q140R
B25: N1-N2-human IgG Fc fusion protein of SEQ ID NO:2 with Y54P (Fc fusion)
chain: B1 chain with Y54P, H56T, Q140R
B26: N1-N2-human IgG Fc fusion protein of SEQ ID NO:2 with T51H (Fc fusion)
chain: B1 chain with T51H, H56T, Q140R
B27: N1-N2-human IgG Fc fusion protein of SEQ ID NO:2 with M135H (Fc fusion)
chain: B1 chain with H56T, M135H, Q140R
B28: N1-N2-human IgG Fc fusion protein of SEQ ID NO:2 with M176R (Fc fusion)
chain: B1 chain with H56T, Q140R, M176R
B29: N1-N2-human IgG Fc fusion protein of SEQ ID NO:2 with M135N (Fc fusion)
chain: B1 chain with H56T, M135N, Q140R
B30: N1-N2-human IgG Fc fusion protein of SEQ ID NO:2 with T51P (Fc fusion)
chain: B1 chain with T51P, H56T, Q140R
B31: N1-N2-human IgG Fc fusion protein of SEQ ID NO:2 with T56G (Fc fusion)
chain: B1 chain with H56G, Q140R
B32: N1-N2-human IgG Fc fusion protein of SEQ ID NO:2 with W181G (Fc fusion)
chain: B1 chain with H56T, Q140R, W181G
B33: N1-N2-human IgG Fc fusion protein of SEQ ID NO:2 with T51K (Fc fusion)
chain: B1 chain with T51K, H56T, Q140R
B34: N1-N2-human IgG Fc fusion protein of SEQ ID NO:2 with R140G (Fc fusion)
chain: B1 chain with H56T, Q140G
B35: N1-N2-human IgG Fc fusion protein of SEQ ID NO:2 with M176K (Fc fusion)
chain: B1 chain with H56T, Q140R, M176K
B36: N1-N2-human IgG Fc fusion protein of SEQ ID NO:2 with T51G (Fc fusion)
chain: B1 chain with T51G, H56T, Q140R
B37: N1-N2-human IgG Fc fusion protein of SEQ ID NO:2 with T56R (Fc fusion)
chain: B1 chain with H56R, Q140R
B38: N1-N2-human IgG Fc fusion protein of SEQ ID NO:2 with R140H (Fc fusion)
chain: B1 chain with H56T, Q140H
B39: N1-N2-human IgG Fc fusion protein of SEQ ID NO:2 with Y54H (Fc fusion)
chain: B1 chain with Y54H, H56T, Q140R
B40: N1-N2-human IgG Fc fusion protein of SEQ ID NO:2 with S173G (Fc fusion)
chain: B1 chain with H56T, Q140R, S173G
B41: N1-N2-human IgG Fc fusion protein of SEQ ID NO:2 with R140E (Fc fusion)
chain: B1 chain with H56T, Q140E
B42: N1-N2-human IgG Fc fusion protein of SEQ ID NO:2 with R140D (Fc fusion)
chain: B1 chain with H56T, Q140D
B43: N1-N2-human IgG Fc fusion protein of SEQ ID NO:2 with R140A (Fc fusion)
chain: B1 chain with H56T, Q140A
B44: N1-N2-human IgG Fc fusion protein of SEQ ID NO:2 with M176H (Fc fusion)
chain: B1 chain with H56T, Q140R, M176H
B45: N1-N2-human IgG Fc fusion protein of SEQ ID NO:2 with M176G (Fc fusion)
chain: B1 chain with H56T, Q140R, M176G
B46: N1-N2-human IgG Fc fusion protein of SEQ ID NO:2 with T51R (Fc fusion)
chain: B1 chain with T51R, H56T, Q140R
B47: N1-N2-human IgG Fc fusion protein of SEQ ID NO:2 with M176N (Fc fusion)
chain: B1 chain with H56T, Q140R, M176N

Molecular target: T1, Aβ42 fibers (UniProt P05067 partial chain)
T1 construct: domain: Aβ42; Fibrillar aggregate dry-coated on ELISA plates; number of chains in a fiber not defined; also called ABeta; Abeta
Experiment: ELISA on coated Aβ42 fibers; IC50 ratio to SEQ ID NO:2
Description: (§1) To each well of a 96-well plate (F96 MAXISORP NUNC-IMMUNO PLATE; Catalog number: 442404, Lot 125436 and 128158; Denmark) was added 200 μL of a 1% BSA solution. The plates were sealed and incubated at 7° C. for 3 hr. Plates were then washed with PBS (250 μL/well)×3. We added 50 μL of the diluted Aβ42 fiber solution (1.6 μM) to each well and incubated uncovered at 37° C. overnight to complete dryness. PBS (50 μl/well) is added to control wells (without Aβ42 fibers). Plates were then washed 2× with water and 1× with PBS (250 μL/well for each washing).
(§2) Varying concentrations of each polypeptide (as well as the polypeptide of SEQ ID NO:2) in 50 μL were added to each well, as well as to non-Aβ42 fiber coated wells and incubated for 1 h at 37° C. Plates were then washed 3× with PBS-T (0.05% Tween 20 in PBS) and 3× with PBS (250 μL/well for each washing). We then added 50 μl of HRP-conjugated Goat anti-Human anti Fcγ (Jackson Labs, Catalog number, 109-035-008, Lot number: 106617) diluted 1:2500 (0.32 μg/mL final) in PBS-T+1% Milk (Difco™ Skim Milk, Becton, Dickinson and Company. USA, Catalog number: 232100, Lot number: 7320448) to each well and incubated for 40 min at 37° C. Plates were then washed 6× with PBS-T and 2× with PBS (250 μL/well for each washing). We then added 50 μl/well OPD solution (5 mg/7.5 ml 0.05 M Citrate buffer pH-5.513 μl H₂O₂) and let color to develop for 3-6 min. We next added 25 μl/well of 4N HCl solution to stop reaction. Plates were read for absorbance at 492 nm and 405 nm. The 405 nm absorbance was subtracted from the 492 nm absorbance and the results plotted as a function of polypeptide concentrations. An IC₅₀ for binding for each deimmunized polypeptide was then calculated and compared to the IC₅₀ calculated for the polypeptide of SEQ ID NO:2.
The above-indicated polypeptides were assayed for binding to beta-amyloid using the ELISA assay set forth in Example 5. Relative binding values reflect IC₅₀ (polypeptide of SEQ ID NO:2)/IC₅₀ (tested polypeptide) (e.g., the lower the value the greater the binding of the polypeptide as compared to a polypeptide of SEQ ID NO:2). Multiple values reflect duplicate testing in the binding assay.

Binder	Relative Binding Value
B1	0.42 ratio
B2	0.26 ratio
B3	0.18 ratio
B4	0.19 ratio
B5	0.11 ratio
B6	0.14 ratio
B7	0.14 ratio
B8	0.34 ratio
B9	0.14 ratio
B10	0.24 ratio
B11	0.12 ratio
B12	0.2 ratio
B13	0.13 ratio
B14	0.08 ratio
B15	0.08 ratio
B16	0.1 ratio
B17	0.07 ratio
B18	0.16 ratio

Molecular target: T1, Aβ42 fibers
T1 sequence (P05067 672-713 limits assumed): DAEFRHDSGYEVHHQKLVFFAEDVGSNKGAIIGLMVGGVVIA
Experiment: ELISA on coated Aβ42 fibers; IC50(variant)/IC50(SEQ ID NO:2)
Description: as §1, §2

Binder	IC50 relative to SEQ ID NO: 2
B19	0.2 ratio
B20	0.3 ratio
B21	0.5 ratio
B22	0.4 ratio
B23	0.1 ratio
B24	0.8 ratio
B25	0.07 ratio
B26	1.5 ratio
B27	0.1 ratio
B28	0.2 ratio
B29	0.3 ratio
B30	0.2 ratio
B31	0.1 ratio
B32	0.5 ratio
B33	2.5 ratio
B34	0.2 ratio
B35	0.2 ratio
B36	0.8 ratio
B37	0.8 ratio
B38	0.2 ratio
B39	0.3 ratio
B40	0.2 ratio
B41	0.3 ratio
B42	0.3 ratio
B43	0.2 ratio
B44	0.4 ratio
B45	0.3 ratio
B46	2 ratio
B47	0.5 ratio
